Measured values published in PubChem BioAssay AID1030 (National Center for Advancing Translational Sciences (NCATS), 2008).
The whole screen tested about 220,000 compounds, of which about 16,000 (7.3%) were called active. The shares of active, inactive and inconclusive entries below differ from those in the screen. Calls come from the whole dose curve; as a rule, active = well fitted inhibition curve with a large enough effect (not every such curve was filed as active); inconclusive = small, poorly fitted or top-dose-only effect, or another doubt; inactive = no such curve, though single readings can be large or run the other way. No potency is given beside an inconclusive call; the fits are too rough. Some structures have more than one record in an assay (separate samples or runs), and their calls can disagree.

target: Aldehyde dehydrogenase 1A1 (Homo sapiens) (UniProt P00352); assay: qHTS Assay for Inhibitors of Aldehyde Dehydrogenase 1 (ALDH1A1); details: Purified ALDH1A1, NADH fluorescence, propionaldehyde substrate; series mostly up to 75.3 µM; activity, negative = inhibition: at the top concentration;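 for activity, negative = inhibition: plate controls were no enzyme wells and a reference inhibitor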
Potency is the fitted concentration of half-maximal effect; tags give direction and shape of the fitted curve.

Chain of UniProt P00352 (P00352 whole entry, looked up): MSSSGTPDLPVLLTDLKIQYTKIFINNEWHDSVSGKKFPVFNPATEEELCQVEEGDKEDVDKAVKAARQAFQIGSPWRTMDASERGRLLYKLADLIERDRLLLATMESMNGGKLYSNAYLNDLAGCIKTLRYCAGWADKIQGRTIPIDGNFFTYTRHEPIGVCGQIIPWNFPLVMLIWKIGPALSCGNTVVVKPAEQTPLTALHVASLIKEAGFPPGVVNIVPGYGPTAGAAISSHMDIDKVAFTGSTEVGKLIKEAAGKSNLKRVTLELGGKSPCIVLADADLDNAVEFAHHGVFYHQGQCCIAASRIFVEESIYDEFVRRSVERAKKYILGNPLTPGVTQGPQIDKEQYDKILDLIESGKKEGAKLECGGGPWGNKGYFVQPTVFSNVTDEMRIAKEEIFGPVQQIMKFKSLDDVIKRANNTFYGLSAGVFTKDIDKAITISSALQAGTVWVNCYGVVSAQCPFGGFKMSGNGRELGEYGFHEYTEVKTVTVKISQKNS

Compound | Potency | activity, negative = inhibition
Cc1oc(C)c2c(=O)ccc3c(c12)OC(N)=C(C#N)C3c1ccc(F)cc1 (stereo unspecified) | active: 14.1 µM | 
COc1ccc(-c2nnc(SCC(=O)c3cccs3)o2)cc1 | inconclusive [inhibitor, single point] | 
O=S(=O)(N/N=C/c1ccc(N2CCOCC2)cc1)c1ccc(Br)cc1 | inconclusive [inhibitor, single point] | 
C#CCSc1nnc(CSc2nc3ccccc3s2)n1-c1ccccc1 | inconclusive [inhibitor, single point] | 
Cn1nc(C(F)(F)F)c2cc(C(=O)N3CCOCC3)sc21 |  | inactive: 5.73%
COc1ccccc1-n1c(-c2cn(C)nc2C)n[nH]c1=S | inconclusive [inhibitor, single point] | 
CCCCCN(C(=O)NC(=O)Nc1nncs1)S(C)(=O)=O |  | inactive: 8.06%
Cc1cc([N+](=O)[O-])ccc1NC(=O)c1ccc(NC(=O)C(C)C)cc1 |  | inactive: 7.48%
C/C(CC(=O)N(C(C)C)C(C)C)=N\NC(=O)COc1ccc(Cl)cc1Cl | inconclusive [inhibitor, single point] | 
O=C(CN1C(=O)c2cccc3cccc1c23)NCc1ccc2c(c1)OCO2 |  | inactive: -6.02%
O=[N+]([O-])c1cccc(C(F)(F)F)c1 |  | inactive: 14.2%
CCCOc1ccc(C(O)CCNC(CC(=O)O)c2ccccc2)cc1 (stereo unspecified) | inconclusive [inhibitor, single point] | 
COc1cccc(N2C(=O)c3ccncc3C2=O)c1 |  | inactive: -3.74%
COc1ccc(CNC(=O)C(c2ccco2)N(Cc2ccccc2)C(=O)Cc2cccs2)cc1 (stereo unspecified) | active: 12.6 µM | 
COc1ccccc1NCC(=O)N/N=C/c1cccnc1 | inconclusive [inhibitor, single point] | 
COc1ncc2nc(-c3cn(C)c4ccccc34)c(=O)n(C)c2n1 | inconclusive [inhibitor, single point] | 
COc1cccc(CN(Cc2ccco2)S(=O)(=O)c2ccc(S(=O)(=O)NCc3ccccc3)cc2)c1OC | inconclusive [inhibitor, single point] | 
CCOC(=O)CN1C(=O)N[C@@H](c2cccc(C(F)(F)F)c2)[C@@H](C(=O)OC)[C@H]1C |  | inactive: 3.1% [at 13.5 µM]
C/C(=N\Nc1ccc(Cl)c(Cl)c1)c1ccc(-n2ccnc2)cc1 | inconclusive [inhibitor, single point] | 
CCOC(=O)c1ccc(NC(=S)NNC(=O)COC)cc1 | active: 8.91 µM | 
CCC(=O)c1ccc(N2CCC(C)CC2)c(F)c1 |  | inactive: 5.08%
O=C(NCc1ccco1)c1cc2c(s1)CSC2 | inconclusive [inhibitor, single point] | 
CC(=O)Nc1ccc(/C=N/NC(=O)c2cc3ccccc3nc2C)cc1 | inconclusive [inhibitor, single point] | 
CC(=O)COc1ccc2c(C)c(-c3ccccc3)c(=O)oc2c1 | inconclusive [inhibitor, single point] | 
COc1ccc(NC(=O)CSc2ncnc3[nH]ncc23)cc1 | active: 11.2 µM | 
COc1ccccc1/C=C/C=N/n1c(-c2ccc(Cl)cc2Cl)n[nH]c1=S | active: 20 µM | 

Compound | Potency | activity, negative = inhibition
CN1C(=S)SC(C)(C)C1(C)NO (stereo unspecified) | inconclusive [inhibitor, single point] | 
CCCCN1CCCC[C@H]1C(=O)Nc1c(C)cccc1C | inactive | 
Oc1c(Cl)cccc1C=Nc1cc(C(F)(F)F)ccc1N1CCCC1 |  | inactive: 1.78%
CSc1ccc(Cl)c(C(=O)OCC(=O)NCc2ccco2)c1 | inconclusive [inhibitor, partial curve] | 
CCOC(=O)C1=C(C)N(C)C(=S)NC1c1ccc(Cl)cc1 (stereo unspecified) |  | inactive: -0.9%
CC(C)(C)c1cc(CCC(=O)NNC(=S)NC(=O)c2ccccc2)cc(C(C)(C)C)c1O | inconclusive [inhibitor, single point] | 
Clc1ccccc1-c1nc(NCc2cccs2)c2ccccc2n1 | inconclusive [inhibitor, single point] | 
Cc1ccc(-n2c(C)cc(/C=C3\NC(=O)NC3=O)c2C)c(C)c1 | inconclusive [inhibitor, single point] | 
c1cnc2ccc(C(c3nnnn3C3CCCC3)N3CCN(c4nc5ccccc5s4)CC3)cc2c1 (stereo unspecified) | inconclusive [inhibitor, single point] | 
Cc1ccccc1OCC(=O)NN1CCN(C)CC1 |  | inactive: 16%
CN1/C(=C\C(=O)c2cccnc2)C(C)(C)c2ccccc21 |  | inactive: 4.02%
COc1cccc(N2C(=O)C(c3ccccc3)=C(c3nc4ccccc4s3)C2NC(C)=O)c1 (stereo unspecified) | inconclusive [inhibitor, partial curve] | 
CCN(CC)S(=O)(=O)c1ccc2oc(SCC(=O)NCc3ccccc3)nc2c1 |  | inactive: -13.8%
CCOC(=O)c1ccc(N2C(=O)CC(N3CCN(Cc4ccccc4)CC3)C2=O)cc1 (stereo unspecified) | active: 28.2 µM | 
CCCCCCc1cc2cc(C(=O)NC)c(=N)oc2cc1O | inconclusive [inhibitor, partial curve] | 
COc1ccc(CNc2cc(-c3ccccc3C)ncn2)c(OC)c1 |  | inactive: -13%
O=C(O)CC(CC(=O)Nc1nncs1)c1ccccc1 (stereo unspecified) |  | inactive: 1.47%
OC1CCCN(Cc2c3ccccc3cc3ccccc23)C1 (stereo unspecified) | inconclusive [inhibitor, partial curve] | 
COCCCn1c(=N)c(C(=O)NCC2CCCO2)cc2c(=O)n3ccccc3nc21 (stereo unspecified) | inconclusive [inhibitor, partial curve] | 
CN(C)S(=O)(=O)c1cccc(NC(=S)Nc2ccc3cn[nH]c3c2)c1 | active: 22.4 µM | 
COc1ccc(-n2c(C)c(C(C)=O)c(C(C)=O)c2C)cc1 |  | inactive: 7.52%
CCCCOc1ccccc1NC(=O)c1scc2c1OCCO2 |  | inactive: -3.73%
O=C(c1cccs1)N(Cc1cc2ccccc2[nH]c1=O)c1ccccc1 | inconclusive [inhibitor, partial curve, poor fit] | 
CCOC(=O)c1c(NC(=O)C(=O)N/N=C/c2ccc(O)c(OC)c2)sc2c1CCCCC2 | inconclusive [inhibitor, single point] | 
Cc1nn(-c2ccccc2)c(C)c1/C=C/C(=O)OCC(=O)N(C)C1CCS(=O)(=O)C1 (stereo unspecified) | inconclusive [inhibitor, single point] | 
Cc1occc1C(=O)n1nnc2ccccc21 |  | inactive: 7.26%

Compound | Potency | activity, negative = inhibition
Cc1sc2nc(CSCC(=O)Nc3ccc(OC(F)F)cc3)[nH]c(=O)c2c1C | active: 39.8 µM | 
COC(=O)Cn1c(=NC(=O)c2ccc(Cl)s2)sc2cc(C)ccc21 | inconclusive [inhibitor, partial curve] | 
O=C1NC2(CCCCC2)C(=O)N1Cc1ccc([N+](=O)[O-])cc1 | inconclusive [inhibitor, single point] | 
Cc1ccc(NC(=O)CN(C)C(=O)CSc2nnc(C(F)(F)F)n2C)cc1 |  | inactive: 2.22%
CC(C)Oc1ccc(NC(=O)Oc2ccccc2)cc1 | inconclusive [inhibitor, single point] | 
O=C(CSc1cn(CC(=O)N2CCCC2)c2ccccc12)NCC1CCCO1 (stereo unspecified) | inconclusive [inhibitor, single point] | 
COc1ccc(-c2cn(/N=C/c3ccc(Cl)cc3Cl)c(N)n2)cc1 | inconclusive [inhibitor, single point] | 
CCCCCCCCCCCCCCCCCCNC(=O)OCC(COP(=O)([O-])OCC[n+]1ccsc1)OC (stereo unspecified) |  | inactive: 5.26%
Cc1cc(C2=NNC(=Nc3ccccc3)SC2)c(C)n1C | inconclusive [inhibitor, partial curve] | 
CN(C)CCCN=Cc1c(-c2ccccc2)[nH]n(-c2nc3ccccc3s2)c1=O | inconclusive [inhibitor, single point] | 
c1ccc(-c2cn3cccnc3n2)cc1 | inconclusive [inhibitor, partial curve] | 
O=C(c1ccccc1)c1ccccc1 | active: 25.1 µM | 
Nc1nc(SCC(=O)NCc2ccccc2)[nH]c(=O)c1NC(=O)c1ccccc1F |  | inactive: 5.48%
CCCCc1nc2c(c3c1CC(C)OC3)CN(CCOc1ccccc1)CC2 (stereo unspecified) |  | inactive: -2.08% [at 13.5 µM]
O=C1CC(SCc2nc3ccccc3[nH]2)C(=O)N1c1cccc(Cl)c1 (stereo unspecified) | active: 11.2 µM | 
O=C(/C=C/c1ccccc1)C1=C(O)C(=O)N(CCO)C1c1ccccc1[N+](=O)[O-] (stereo unspecified) | inconclusive [inhibitor, partial curve] | 
COc1ccc(/C=N/n2cnn(Cc3ccccc3Cl)c2=S)cc1OC | inconclusive [inhibitor, single point] | 
COc1ccccc1S(=O)Cc1ccc(C(=O)NCc2ccccc2Cl)o1 (stereo unspecified) | inconclusive [inhibitor, single point] | 
CCN(CC)CC(=O)c1c[nH]c2ccc(C)cc12 | inconclusive [inhibitor, single point] | 
O=c1c2c3c(sc2ncn1/N=C/c1ccccc1)CCCC3 | active: 11.2 µM | 
COc1cccc(C(=O)Oc2c(Br)cc(Br)cc2/C=N/NC(=O)c2cc(C)[nH]n2)c1 |  | inactive: -14.5%
COC(=O)c1c(NC(=O)COC(=O)[C@@H](NS(=O)(=O)c2ccc(C)cc2)C(C)C)sc2c1CCC2 | inconclusive [inhibitor, single point] | 
Cc1ncc(CO)c(CN)c1O |  | inactive: 3.38% [at 13.5 µM]
O=C(Nc1ccccc1N1CCOCC1)c1cc(-c2ccncc2)nc2ccccc12 |  | inactive: 0.373%
